Among all 350,000 compounds or so, about 31,000 (8.9%) were called active. The shares of active, inactive and inconclusive entries below differ from those in the screen. Calls follow the shape of the dose curve; as a rule, active = well fitted inhibition curve with a large enough effect; inconclusive = small, poorly fitted or top-dose-only effect; inactive = no such curve, though single readings can be large or run the other way. A potency beside an inconclusive call is a rough fit, not a confirmed value.
molecular target: Histone-lysine N-methyltransferase EHMT2 (Homo sapiens) (UniProt Q96KQ7); experiment: qHTS Assay for Inhibitors of Histone Lysine Methyltransferase G9a; settings: G9a H3K9 monomethylation, AlphaScreen, 2 h; activity, negative = inhibition: at 59 µM (top of the series) unless noted; also: nearly all actives have a fitted effect of over 75% in size
Method in brief: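 Chemiluminescent proximity detection of H3K9 monomethylation, read after 10 min bead incubation in the dark. Reaction: 20 nM G9a, 500 nM biotin-H3K9 peptide, 20 uM SAM cofactor, 2 h, room temperature, following 15 min enzyme-compound preincubation.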
% is scaled to controls: 0 for no effect and ±100 for the full control effect; potency is read from the fitted curve at half-maximal effect; tags tell the direction and shape of the fitted curve.

Sequence of UniProt Q96KQ7 (Q96KQ7 whole entry, looked up): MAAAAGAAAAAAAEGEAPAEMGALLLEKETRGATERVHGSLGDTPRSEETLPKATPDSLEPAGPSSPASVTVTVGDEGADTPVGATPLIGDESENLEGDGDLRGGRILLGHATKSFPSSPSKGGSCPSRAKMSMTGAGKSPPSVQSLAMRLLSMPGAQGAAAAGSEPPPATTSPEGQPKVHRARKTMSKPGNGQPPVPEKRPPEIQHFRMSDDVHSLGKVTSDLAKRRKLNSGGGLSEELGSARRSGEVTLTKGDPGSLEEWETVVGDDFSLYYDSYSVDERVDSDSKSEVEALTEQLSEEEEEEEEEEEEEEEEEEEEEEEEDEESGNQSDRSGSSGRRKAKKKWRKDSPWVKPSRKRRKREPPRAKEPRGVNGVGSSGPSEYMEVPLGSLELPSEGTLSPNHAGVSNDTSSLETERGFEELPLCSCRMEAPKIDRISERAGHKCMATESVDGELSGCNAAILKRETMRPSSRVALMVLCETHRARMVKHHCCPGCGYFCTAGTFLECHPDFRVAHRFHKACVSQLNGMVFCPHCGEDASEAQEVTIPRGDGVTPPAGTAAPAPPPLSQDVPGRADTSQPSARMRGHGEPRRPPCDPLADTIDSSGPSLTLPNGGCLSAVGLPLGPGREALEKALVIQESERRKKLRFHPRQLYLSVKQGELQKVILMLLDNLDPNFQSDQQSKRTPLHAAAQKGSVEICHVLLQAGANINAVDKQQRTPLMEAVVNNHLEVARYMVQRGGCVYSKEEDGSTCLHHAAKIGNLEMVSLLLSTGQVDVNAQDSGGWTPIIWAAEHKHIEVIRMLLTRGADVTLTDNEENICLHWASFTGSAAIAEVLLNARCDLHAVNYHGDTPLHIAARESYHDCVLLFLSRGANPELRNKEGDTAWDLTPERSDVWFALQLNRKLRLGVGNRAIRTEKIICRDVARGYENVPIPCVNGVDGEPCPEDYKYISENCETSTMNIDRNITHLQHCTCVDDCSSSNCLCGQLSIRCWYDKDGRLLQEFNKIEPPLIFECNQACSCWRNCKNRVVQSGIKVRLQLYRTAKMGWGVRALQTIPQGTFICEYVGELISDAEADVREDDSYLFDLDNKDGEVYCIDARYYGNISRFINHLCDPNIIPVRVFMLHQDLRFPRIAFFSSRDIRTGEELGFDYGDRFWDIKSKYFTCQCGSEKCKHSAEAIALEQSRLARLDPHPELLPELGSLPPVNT

Compound | Potency | activity, negative = inhibition
Cn1cccc1C(=O)c1cccc([N+](=O)[O-])c1 | inconclusive: 89.1 µM [inhibitor, partial curve, poor fit] | –
COc1ccc(C2(C)NC(=O)N(CC(=O)Nc3c(C)n(C)n(-c4ccccc4)c3=O)C2=O)cc1 (stereo not drawn) | active: 56.2 µM | –
COc1ccc(-c2nc3nc(C)cc(Nc4ccc(C(C)=O)cc4)n3n2)cc1 | inactive | –
CCCCN(C(=O)C1CC(=O)N(Cc2ccc(C)cc2)C1)c1c(N)n(CC(C)C)c(=O)[nH]c1=O (stereo not drawn) | inconclusive: 89.1 µM [inhibitor, partial curve, poor fit] | –
Cc1nc2nc(C)c(NS(=O)(=O)c3cccs3)c(=O)n2[nH]1 | inconclusive: 89.1 µM [inhibitor, single point] | –
Cc1ccc(C(=O)NCCc2ccc(F)cc2)s1 | inactive | –
COC(=O)C1=C(C(=O)OC)C2(OC1c1cccc(F)c1)C(=O)c1ccccc1C2=O (stereo not drawn) | active: 25.1 µM | –
CCN(C(=O)CSc1nnc(NC2CCCCC2)s1)C1CCS(=O)(=O)C1 (stereo not drawn) | inconclusive: 7.94 µM [inhibitor, single point] | –
COc1cc(CNCCNC(=O)c2nonc2N)ccc1OCc1ccc(Cl)nc1 | inconclusive: 79.4 µM [inhibitor, single point] | –
CCC(=O)Nc1ccc(Cl)c(NC(=S)NC(=O)c2ccco2)c1 | inconclusive: 22.4 µM [inhibitor, single point] | –
C=CCC1(C#N)C(=S)NC(C)=C(C(=O)OCC)C1c1ccccc1 (stereo not drawn) | inactive | –
O=C(O)C(Cc1c[nH]c2ccccc12)N1C(=O)C2C3c4ccccc4C(c4ccccc43)[C@@H]2C1=O (stereo partly drawn) | active: 50.1 µM | –
COc1ccc(N2CCN(C(=O)CCS(=O)(=O)c3ccc4c(c3)NC(=O)CO4)CC2)cc1 | inconclusive: 89.1 µM [inhibitor, single point] | –
CCOc1ccc2c(c1)[C@@H]1C=CC[C@@H]1[C@H](c1ccccc1Cl)N2 | active: 11.2 µM | –
COc1ccccc1N1C(=O)CC(Sc2ccccc2N)C1=O (stereo not drawn) | inconclusive: 89.1 µM [inhibitor, partial curve, poor fit] | –
COc1ccc(CNCC(O)(c2ccc(Cl)cc2)c2ccc(Cl)cc2)cc1OC | inactive | –
COc1ccc(C(c2sc3nc(C)nn3c2O)N2CCC(C(N)=O)CC2)cc1OC (stereo not drawn) | active: 50.1 µM | –
CN(CCO)c1nc(N)c2c(N)nc3c(c2c1C#N)CC(=O)N3Cc1cccs1 | inconclusive: 1.78 µM [inhibitor, partial curve, poor fit] | –
CCn1cc(C(=O)N[C@H](C(=O)NCCO)C(C)C)c(=O)c2cc3c(cc21)OCO3 | inconclusive: 89.1 µM [inhibitor, partial curve, poor fit] | –
c1csc(-c2nnc(N3CCCCCC3)c3ccccc23)c1 | active: 10 µM | –
Cc1cc(N2CCC(C)CC2)c(F)cc1[N+](=O)[O-] | inconclusive: 3.55 µM [inhibitor, partial curve, poor fit] | –
O=C(CCN1CCCCC1)NCNC(=O)CCN1CCCCC1 | inconclusive: 44.7 µM [inhibitor, partial curve] | –

Compound | Potency | activity, negative = inhibition
O=c1cc(-c2ccccc2Cl)oc2c(NS(=O)(=O)c3ccccc3C(F)(F)F)ccc(O)c12 | – | inconclusive: -75.1% [inhibitor]
Cn1nc(C(F)(F)F)c(C(=O)Nc2ccc(F)cc2F)c1Sc1cccc(Cl)c1 | – | inactive: 17.8% [at 0.0925 µM]
COc1cc(NC(=O)Cn2ccsc2=N)cc(OC)c1 | inconclusive: 35.5 µM [inhibitor, partial curve, poor fit] | –
COc1ccc(NC2CCCN(C(=O)c3ccccc3C(F)(F)F)C2)cc1 (stereo not drawn) | active: 39.8 µM | –
CC(C)(C)c1ccc(C(=O)Nc2nnc(C3=COCCO3)o2)cc1 | inactive | –
O=C(CN1CCN(Cc2ccc3c(c2)OCO3)CC1)Nc1cc(S(=O)(=O)N2CCCC2)ccc1Cl | inconclusive: 31.6 µM [inhibitor, partial curve] | –
O=C(/C=C/c1ccc([N+](=O)[O-])cc1)Nc1cccc(C(=O)Nc2ccccc2C(=O)O)c1 | active: 44.7 µM | –
O=[N+]([O-])c1ccc(S(=O)(=O)NCC2CCCO2)cc1 (stereo not drawn) | inactive | –
Cc1ccc(Cl)cc1Nc1nc(-c2sc(NC(=O)c3cccc(Cl)c3)nc2C)cs1 | active: 31.6 µM | –
Cc1cccc(-c2nc3c(cnn3-c3ccccc3)c(=O)n2-c2cccc(Cl)c2)c1 | inconclusive: 7.08 µM [inhibitor, partial curve, poor fit] | –
CN(C)S(=O)(=O)c1cccc(NC(=O)c2cccc(N3C(=O)CCC3=O)c2)c1 | inconclusive: 50.1 µM [inhibitor, partial curve, poor fit] | –
CN(C)C(=O)c1ccc(-c2ccc3ncnc(NCCN4CCOCC4)c3c2)cc1 | – | inactive: -33.8% [at 0.501 µM]
COc1cccc(C(=O)NCCNC(=O)c2ccc(C)nc2)c1 | inactive | –
CC1(C)S/C(=N/N=C/c2ccco2)NC1=O | inconclusive: 89.1 µM [inhibitor, single point] | –
CCCc1cc(=O)[nH]c(SCC(=O)N2CCOCC2)n1 | inconclusive: 89.1 µM [inhibitor, single point] | –
Cc1ccc(CNC(C)c2ccccc2)s1 (stereo not drawn) | inactive | –
O=C(Nc1cccnc1Cl)c1ccc(Cl)c([N+](=O)[O-])c1 | inconclusive: 89.1 µM [inhibitor, single point] | –
CC(CN1CCCC1)OC(=O)c1ccccc1Cl (stereo not drawn) | inconclusive: 89.1 µM [inhibitor, single point] | –
CC(C)(C)OC(=O)N1CCC(c2c(C(=O)Nc3ccc4c(c3)OCCO4)cnn2-c2ccc(F)cc2)CC1 | inconclusive: 11.2 µM [inhibitor, partial curve] | –
CCCCC1=CC2=C(c3ccco3)C(=O)C(C)(OC(=O)c3ccc(OC)cc3)C(=O)C2=CN1c1ccccc1 (stereo not drawn) | inconclusive: 35.5 µM [inhibitor, single point] | –
O=C(O)C(Cc1ccccc1)n1c(=S)[nH]c2ccccc2c1=O (stereo not drawn) | inconclusive: 44.7 µM [inhibitor, partial curve, poor fit] | –
